# Source: PubChem BioAssay (NCATS)
# This list was built around the results that the source calls inconclusive (neither active nor inactive); the mix of calls is not that of the screen. Potencies beside an inconclusive call are fits to weak or partial responses and may not hold up. The source made the active and inactive calls. The call rests on the fitted dose curve; in most records, active means well fitted cell-killing curve with a large enough effect; inconclusive means small, poorly fitted or top-dose-only effect, or effect the other way; inactive means flat fitted curve, though single readings scatter.
# Test system: Es-2
# Experiment: Primary qHTS to identify gynecologic anti-cancer compounds using libraries of approved drugs and bioactive compounds (AID 1345084); further: nearly all actives have a fitted effect of over 55% in size
# Details: Gynecologic cancer cell panel viability, ATPlite luminescence, 48 h; series mostly up to 57.5 µM; activity change, negative = cytotoxicity: at the top concentration
# Method in brief: (§1)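 Cytotoxicity screen measuring ATP content by luciferase luminescence. Each compound is applied at five concentrations for 48 h at 37 C with 5% CO2.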
# On the % scale 0 is the no-effect control and ±100 the full control effect; potency means the concentration at half of the fitted maximal effect; tags describe the fitted curve by direction and shape.
Structure (SMILES),Potency,"activity change, negative = cytotoxicity"
COc1cc(CC(C)N)cc(OC)c1OC (configuration not stated),active: 15.8 µM,
C=C(C)[C@@]12O[C@@H]1[C@@]1(C)C(=CC2=O)CC[C@@H](OC(C)=O)[C@@H]1C,"inconclusive: 7.94 µM [cytotoxic, partial curve, poor fit]",
C[C@]12CC[C@H](O[C@@H]3O[C@H](CO)[C@@H](O)[C@H](O)[C@H]3O[C@@H]3O[C@H](CO)[C@@H](O)[C@H](O)[C@H]3O)CC1=CC[C@@H]1[C@@H]2CC[C@]2(C)[C@@H](C3=CC(=O)OC3)CC[C@]12O,"inconclusive: 12.6 µM [cytotoxic, single point]",
C[C@]12CC[C@H](OC3OC(CO)C(O)C(O)C3OC3OC(CO)C(O)C(O)C3O)C[C@@H]1CC[C@@H]1C2CC[C@]2(C)[C@@H](C3=CC(=O)OC3)CC[C@]12O (some centres not stated),"inconclusive: 10 µM [cytotoxic, single point]",
CCCC1CCCCN1 (configuration not stated),,inactive: -0.402%

# Test system: HeLa
# Experiment: as above
# Details: Gynecologic cancer cell panel viability, ATPlite luminescence, 48 h; series mostly up to 57.5 µM; activity change, negative = cytotoxicity: at the top concentration
# Method in brief: as §1
Structure (SMILES),Potency,"activity change, negative = cytotoxicity"
COc1cc(CC(C)N)cc(OC)c1OC (configuration not stated),active: 1.58 µM,
C=C(C)[C@@]12O[C@@H]1[C@@]1(C)C(=CC2=O)CC[C@@H](OC(C)=O)[C@@H]1C,"inconclusive: 25.1 µM [cytotoxic, single point]",
C[C@]12CC[C@H](O[C@@H]3O[C@H](CO)[C@@H](O)[C@H](O)[C@H]3O[C@@H]3O[C@H](CO)[C@@H](O)[C@H](O)[C@H]3O)CC1=CC[C@@H]1[C@@H]2CC[C@]2(C)[C@@H](C3=CC(=O)OC3)CC[C@]12O,"inconclusive: 12.6 µM [cytotoxic, single point]",
Cc1ccc(-n2nccn2)c(C(=O)N2CCN(c3nc4cc(Cl)ccc4o3)CCC2C)c1 (configuration not stated),,inactive: -8.45%
O=C1CN=C(c2cccc(Br)c2)c2oc3ccccc3c2N1,"inconclusive: 39.8 µM [cytotoxic, single point]",
CC[C@@H]1/C=C/C=C/C[C@H](C)C(O)[C@](C)(O)C(=O)[C@H](C)C(O)[C@H](C)C(=O)[C@H](C)[C@@H](O)[C@H](C)/C=C/C(=O)O[C@H]2[C@@H](C)[C@@H](CC1)O[C@]1(O[C@H](C[C@H](C)O)[C@H](C)CC1=O)[C@@H]2C (some centres not stated),"inconclusive: 0.316 µM [cytotoxic, full curve, poor fit]",
CC1C/C=C/C(O)C(O)CC/C=C/c2cc(O)cc(O)c2C(=O)O1 (configuration not stated),,inactive: 3.57% [at 38.5 µM]
